Source: FireProtDB (doi:10.1042/bj2870481)

Conditions: Gallus gallus, 25 °C, GdnHCl, Absorbance, Unknown, KCl 0.1 M, reversible: yes

Substance: Lysozyme C wild type (letters omitted)
- denaturant m value (pH 0.34): 1.71 kcal/mol/M
- denaturant midpoint (higher = more stable) (pH 0.34): 1.52 M
- unfolding free energy (pH 0.34): 2.61 kcal/mol
- denaturant m value (pH 0.64): 1.71 kcal/mol/M
- denaturant midpoint (higher = more stable) (pH 0.64): 1.59 M
- unfolding free energy (pH 0.64): 2.72 kcal/mol
- denaturant m value (pH 2.03): 1.91 kcal/mol/M
- denaturant midpoint (higher = more stable) (pH 2.03): 2.13 M
- unfolding free energy (pH 2.03): 4.08 kcal/mol
- denaturant m value (pH 7): 2.11 kcal/mol/M
- denaturant midpoint (higher = more stable) (pH 7): 4.21 M
- unfolding free energy (pH 7): 8.89 kcal/mol
